Source: publication PMC4336329 (PLoS ONE, 2015)
Screen size: about 310,000 compounds; about 14,000 (4.5%) showed an effect of 50% or more. Effects have a minus sign here. Some of the results follow.

These compounds were tested against human ether-à-go-go-related gene (hERG) potassium channel (human, UniProt Q12809) (assay: primary screen, population patch clamp on CHO cells stably expressing hERG).
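Further: peak tail current of the secondary pulse compared with the same well before compound.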

Chain of human ether-à-go-go-related gene (hERG) potassium channel (Q12809 whole entry, looked up): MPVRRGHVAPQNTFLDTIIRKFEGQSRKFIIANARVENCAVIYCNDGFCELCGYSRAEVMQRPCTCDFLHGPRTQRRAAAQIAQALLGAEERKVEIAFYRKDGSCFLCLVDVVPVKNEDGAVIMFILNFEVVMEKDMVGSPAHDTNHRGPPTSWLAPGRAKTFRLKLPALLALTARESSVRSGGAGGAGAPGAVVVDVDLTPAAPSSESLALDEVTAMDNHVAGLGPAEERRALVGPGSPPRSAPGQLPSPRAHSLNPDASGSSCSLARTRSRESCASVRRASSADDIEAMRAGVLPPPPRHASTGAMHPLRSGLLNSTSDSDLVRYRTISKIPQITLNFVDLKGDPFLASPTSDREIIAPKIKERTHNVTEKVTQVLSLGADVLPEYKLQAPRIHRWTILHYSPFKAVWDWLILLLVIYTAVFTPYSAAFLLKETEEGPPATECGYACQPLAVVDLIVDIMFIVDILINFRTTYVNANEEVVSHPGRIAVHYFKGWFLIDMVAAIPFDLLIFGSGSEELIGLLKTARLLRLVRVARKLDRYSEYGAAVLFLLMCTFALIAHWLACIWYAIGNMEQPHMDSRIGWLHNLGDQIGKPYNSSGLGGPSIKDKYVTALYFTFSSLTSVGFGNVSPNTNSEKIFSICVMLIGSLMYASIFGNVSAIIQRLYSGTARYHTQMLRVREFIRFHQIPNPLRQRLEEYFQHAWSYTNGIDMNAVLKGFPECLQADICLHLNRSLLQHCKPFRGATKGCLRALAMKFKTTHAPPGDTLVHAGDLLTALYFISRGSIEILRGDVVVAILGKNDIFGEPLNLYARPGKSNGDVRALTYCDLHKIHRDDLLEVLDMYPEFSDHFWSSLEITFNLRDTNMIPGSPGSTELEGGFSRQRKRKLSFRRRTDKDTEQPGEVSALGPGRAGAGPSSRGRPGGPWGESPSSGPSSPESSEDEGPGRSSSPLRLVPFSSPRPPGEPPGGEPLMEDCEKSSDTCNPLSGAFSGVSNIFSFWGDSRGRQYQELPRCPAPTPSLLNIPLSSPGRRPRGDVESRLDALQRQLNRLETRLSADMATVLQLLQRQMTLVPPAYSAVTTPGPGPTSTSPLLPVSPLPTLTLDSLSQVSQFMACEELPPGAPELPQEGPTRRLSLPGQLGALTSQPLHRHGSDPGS

Compound	hERG current change (%, negative = inhibition) at 10uM
CCn1cc(C=C2C(=O)NC(=O)NC2=O)c2ccccc21	8.88%
Cc1cc(OCCCC(=O)NCCN2C(=O)S/C(=C\c3cccnc3)C2=O)ccc1Cl	-6.35%
CCOc1ccc2nc(N3CCCN(C(=O)Nc4ccccc4C)CC3)c(C#N)cc2c1	-23.2%
O=c1c2ccccc2nc(COc2ccccc2)n1/N=C/c1ccco1	-16.3%
C/C(=N\NC(=O)CNc1cccc2ccccc12)c1ccc(Br)s1	6.57%
CC(C)Cc1nnc(NC(=O)c2ccc3c(=O)n4c(nc3c2)CCC4)s1	-20.5%
Cc1ccccc1NC(=O)CSc1nc(Nc2ccccc2)nc(N2CCOCC2)n1	5.35%
CCOC(=O)Cc1csc(NC(=O)Nc2ccc(C)cc2)n1	16.1%
CCOc1ccc(CCNC(=O)c2ccc(Cl)c(S(=O)(=O)N3CCOCC3)c2)cc1OCC	-20.4%
c1ccc2oc(SCc3nc4ccccc4s3)nc2c1	-0.629%
CCOC(=O)c1sc(NC(=O)CN2C(=O)NC3(CCCCCCC3)C2=O)c(C(=O)OCC)c1C	-5.88%
COc1ccc(CNc2nc3ccccc3n2Cc2ccccc2)cc1OC	-44.7%
C1COCCO1.CCOc1ccccc1N/C(=N/c1nc(C)cc(C)n1)NC(=O)Nc1ccc(Cl)c(Cl)c1	2.03%
C(=C\c1nc(-c2cccnc2)no1)/c1ccccc1	4.25%
CCN(Cc1ccccc1)Cc1ccc(OCc2ccccc2)c(OC)c1	-31.2%
c1ccc(CSc2nnc3ccc(-c4ccco4)nn23)nc1	9.26%
COc1ccc(C(=O)NCCc2nnc(SCC(=O)Nc3ccc(Br)cc3)n2C)cc1	-16.6%
Cc1nc(NC(=O)CSc2nc(N)cc(N)n2)sc1C	-5.19%
c1ccc(-c2c(-c3ccccc3)n(Cc3ccco3)c3ncnc(NCCCn4ccnc4)c23)cc1	-71.6%
CCCCOc1ccc(C(=O)N/C(=C\c2ccc([N+](=O)[O-])cc2)C(=O)OCc2ccco2)cc1	8.44%
O=C(O)C1CCCCC1C(=O)NCCCN1CCOCC1 (centres unmarked)	-1.05%
O=C(COc1ccccc1Cl)Nc1ccc(N2CCN(C(=O)c3ccccc3)CC2)cc1	1.5%

Compound	hERG current change (%, negative = inhibition) at 10uM
COc1cccc(NC(=O)CN(C)C(=O)c2ccccc2Sc2ccccc2C#N)c1	2.55%
COc1cccc(CNC(=O)c2ccc(NC(=O)CC3SC(N4CCCC4)=NC3=O)cc2)c1 (centres unmarked)	-4.93%
CCn1cc(/C=C2/SC(=S)NC2=O)c(C)n1	7.91%
COC(=O)CCNC(=O)c1ccc2nc(Cc3ccc(OC)cc3)oc2c1	13.2%
N#Cc1c(NC(=O)c2ccc(Br)o2)n(-c2ccccc2)c2nc3ccccc3nc12	5.45%
O=C(CSc1nnc(NC(=O)C2CC(=O)N(c3ccc(F)cc3)C2)s1)NCC1CCCO1 (centres unmarked)	14.7%
O=C(Nc1ccccc1N1CCCCC1)C1CCN(S(=O)(=O)c2cccc(C(F)(F)F)c2)CC1	2.96%
CCOC(=O)CNC(=O)c1sc(NC(=O)c2cccc(F)c2)nc1C	-0.522%
CN(C)S(=O)(=O)NC(c1ccccc1)c1ccccc1	-2.78%
CCOC(=O)Nc1nc(C)c(C(=O)N(C)C)s1	-3.53%
CC(C)Oc1cccc(C(=O)NC(=S)N2CCN(c3ccc(C(F)(F)F)cc3[N+](=O)[O-])CC2)c1	-10.5%
COc1ccc(/C=N/NC(=O)c2ccc(Cn3cc([N+](=O)[O-])cn3)o2)cc1O	15.8%
CCOc1ccc(N2C(=O)CC(S/C(N)=N/N=C/c3cccs3)C2=O)cc1 (centres unmarked)	13.4%
CC1CN(c2ccc(S(=O)(=O)N3CCCC3)cn2)CC(C)O1 (centres unmarked)	13.9%
O=C(Nc1ccc(N2CCOCC2)c(S(=O)(=O)Nc2ccccc2Cl)c1)c1ccccc1	-3.45%
CCN1CC=C2C(C#N)=C(N)C(C#N)(C#N)[C@H](c3ccoc3)[C@H]2C1	-8.21%
FC(F)(F)COc1ccc(-c2nnc(SCc3c(Cl)cccc3Cl)o2)cn1	19.3%
CCOc1ccc(CCNC(=O)c2nnc(Cc3ccc(F)cc3)o2)cc1OCC	-1.78%
O=c1cnnc(N/N=C/c2c[nH]c3ccccc23)[nH]1	23.9%
CCCc1cc(C(N)=O)c(NC(=O)c2cc(C)on2)s1	-16.9%
CC(C)CC(=O)Nc1ccc(N2CCN(C(=O)c3cccs3)CC2)cc1	-42.9%
O=C(CS(=O)(=O)c1ccccc1)Nc1nc(-c2ccccc2)cs1	-51.9%
